# Measured values as given in PubChem BioAssay AID1460 (National Center for Advancing Translational Sciences (NCATS), 2008).
# Among all 270,000 compounds or so, about 5,800 (2.1%) were called active. The shares of active, inactive and inconclusive entries below differ from those in the screen. Calls come from the whole dose curve; as a rule, active = well fitted inhibition curve with a large enough effect; inconclusive = small, poorly fitted or top-dose-only effect; inactive = flat fitted curve, though single readings scatter. Potencies of inconclusive entries are doubtful fits and often do not repeat.
# Target: Microtubule-associated protein tau (Homo sapiens) (UniProt P10636)
# Sequence of UniProt P10636 (P10636 whole entry, looked up): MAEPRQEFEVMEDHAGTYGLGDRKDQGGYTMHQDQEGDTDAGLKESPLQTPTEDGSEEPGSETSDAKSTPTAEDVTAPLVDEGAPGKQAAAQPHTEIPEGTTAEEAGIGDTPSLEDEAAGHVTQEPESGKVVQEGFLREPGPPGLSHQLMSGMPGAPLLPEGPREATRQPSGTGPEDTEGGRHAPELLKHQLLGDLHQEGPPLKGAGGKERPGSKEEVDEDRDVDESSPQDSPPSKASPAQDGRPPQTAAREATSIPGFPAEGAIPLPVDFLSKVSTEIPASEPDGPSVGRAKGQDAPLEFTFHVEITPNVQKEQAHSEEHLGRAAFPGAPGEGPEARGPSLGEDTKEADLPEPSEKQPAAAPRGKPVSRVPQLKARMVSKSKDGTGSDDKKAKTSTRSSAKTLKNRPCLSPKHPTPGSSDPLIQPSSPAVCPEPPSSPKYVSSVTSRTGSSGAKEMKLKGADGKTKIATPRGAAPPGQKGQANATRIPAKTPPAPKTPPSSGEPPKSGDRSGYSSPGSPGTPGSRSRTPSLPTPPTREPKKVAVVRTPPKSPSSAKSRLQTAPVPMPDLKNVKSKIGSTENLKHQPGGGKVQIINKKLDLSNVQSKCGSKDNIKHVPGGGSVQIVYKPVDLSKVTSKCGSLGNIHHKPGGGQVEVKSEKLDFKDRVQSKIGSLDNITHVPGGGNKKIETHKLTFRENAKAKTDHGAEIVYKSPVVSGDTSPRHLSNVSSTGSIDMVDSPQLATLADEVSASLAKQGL
# Test: qHTS for Inhibitors of Tau Fibril Formation, Thioflavin T Binding; note: nearly all actives have a fitted effect of over 55% in size
# Conditions: recombinant tau K18 P301L (four-repeat tau fragment), heparin-induced fibrillization, ThT fluorescence; series mostly up to 57.4 µM; activity, negative = inhibition: at the top concentration
# Method in brief: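 Tau K18 P301L fragment (15 uM unlabeled plus 0.24 uM Alexa 594-labeled) in 100 mM sodium acetate pH 7 with compound, fibrillization induced by 20 uM heparin for 6 hr at 37 C. Thioflavin T (30 uM) added, fluorescence read after 1 hr (ex 450, em 510 nm).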
# % is set by controls: 0 for no effect and ±100 for the full control effect; potency is the fitted concentration of half-maximal effect; tags give direction and shape of the fitted curve.
Structure (SMILES),Potency,"activity, negative = inhibition"
O=S(=O)(c1ccccc1)c1nc(-c2ccco2)oc1NCc1ccccc1,"inconclusive: 14.1 µM [inhibitor, partial curve, poor fit]",–
Cn1nc(C(F)(F)F)c(/C=N/OC(=O)c2ccccc2)c1Cl,–,inactive: -0.412%
O=C(Nc1ccc(OC(=O)c2ccco2)cc1)c1ccco1,–,inactive: -8.53%
CCOC(=O)c1ccc(NC(=O)CSc2nnc(CNC(=O)c3ccccc3F)o2)cc1,"inconclusive: 11.2 µM [inhibitor, partial curve, poor fit]",–
COc1cccc(-c2nc(S(=O)(=O)c3ccc(Cl)cc3)c(NCc3ccccc3)o2)c1,–,inactive: 4.14%
Cc1nonc1OCCNCCNc1ccccc1[N+](=O)[O-],"inconclusive: 39.8 µM [inhibitor, single point]",–
O=C(NCc1ccccc1Br)c1cnc2sc(N3CCCCCC3)nn2c1=O,–,inactive: -12.2%
Cc1ccc(OCC(=O)Nc2ccc(N3CCN(S(C)(=O)=O)CC3)cc2)cc1C,"inconclusive: 31.6 µM [inhibitor, partial curve, poor fit]",–
CCOCCCNC(=S)NCCCNc1nc2c(C)c(C)ccc2cc1C#N,"inconclusive: 20 µM [inhibitor, single point]",–
COc1cccc(Cn2nnc3c(=O)[nH]c(C4CCN(C(=O)c5ccccc5Cl)CC4)nc32)c1,–,inactive: -12.3%
Cc1ccc(N2CCN(C(=O)c3cnc(N4CCCCC4)c4ccccc34)CC2)c(C)c1,"inconclusive: 44.7 µM [inhibitor, single point]",–
CC(=O)c1sc(Nc2ccccn2)nc1C,–,inactive: -3.4%
COc1ccccc1NC(=O)CCSc1nnc(-c2ccc(O)cc2)o1,"inconclusive: 6.31 µM [inhibitor, partial curve]",–
COc1ccc(C)cc1NC1=C(Cl)C(=O)N(C2CCCCC2)C1=O,"inconclusive: 31.6 µM [inhibitor, partial curve]",–
O=C(Nc1ccc(NC(=O)c2sc3ccccc3c2Cl)cc1Cl)c1ccco1,"inconclusive: 2 µM [inhibitor, full curve]",–
O=C(Nc1ccc(F)c(Cl)c1)N1CC=C(c2c[nH]c3ccccc23)CC1,active: 6.31 µM,–
CC(C)c1cc(C(=O)NCc2ccco2)no1,"inconclusive: 31.6 µM [inhibitor, single point]",–
CC1(OC(=O)C2CCCC2)C(=O)C=C2C=C(c3ccsc3)N(c3ccc(CO)cc3)C=C2C1=O (stereo not given),–,inactive: 6.79% [at 11.5 µM]
O=C1CC(=O)N(CCc2ccc(F)cc2)C(=O)N1,"inconclusive: 12.6 µM [inhibitor, partial curve]",–
COc1ccc(/C=N/Nc2nn3cnnc3c3ccccc23)cc1,"inconclusive: 39.8 µM [inhibitor, single point]",–
Cc1nn(C(=O)c2ccc(Cl)cc2)c(C)c1S(=O)(=O)N1CCCCCC1,"inconclusive: 11.2 µM [inhibitor, partial curve]",–
O=[N+]([O-])c1ccc(N2CCOCC2)cc1N1CCCCC1,"inconclusive: 17.8 µM [inhibitor, partial curve]",–
Cc1nn2c(C)c(C(=O)NCc3ccco3)cnc2c1-c1ccccc1,"inconclusive: 39.8 µM [inhibitor, single point]",–

Structure (SMILES),Potency,"activity, negative = inhibition"
CCOc1cc(C(=O)Nc2ccc(NC(C)=O)cc2)ccc1OCC(=O)N1CCCCC1,"inconclusive: 15.8 µM [inhibitor, partial curve]",–
COc1cc(/C=N/Nc2snc(SC)c2C#N)ccc1O,"inconclusive: 0.794 µM [inhibitor, full curve]",–
CCN(CC)c1nc2ccccc2nc1C(=O)Nc1cc(OC)c(OC)c(OC)c1,–,inactive: -1.68%
CCOC(=O)c1ccc(NC(=O)CSc2c3c(nc4cc(Cl)ccc24)CCCC3)cc1,"inconclusive: 3.98 µM [inhibitor, partial curve]",–
CCOC(=O)Cn1c(=NC(=O)C2COc3ccccc3O2)sc2cc(S(N)(=O)=O)ccc21 (stereo not given),–,inactive: -11.5%
Cn1c(N2CCN(C(=O)Nc3ccc(C(F)(F)F)cc3)CC2)nc2ccccc21,"inconclusive: 20 µM [inhibitor, partial curve]",–
O=C(CN1CCCc2ccccc21)NCc1ccccc1Cl,–,inactive: -11.8%
COc1cc(/C=C2/CCC/C(=C\c3cc(O)c(OC)c(Cl)c3)C2=O)cc(Cl)c1O,active: 11.2 µM,–
COC(=O)N/N=C/c1ccc([N+](=O)[O-])s1,"inconclusive: 4.47 µM [inhibitor, full curve]",–
Cc1[nH][nH]c(=O)c1C(c1ccc(-c2ccc(C(=O)O)cc2)o1)c1c(C)[nH][nH]c1=O,active: 11.2 µM,–
CC(C)C(NS(=O)(=O)c1ccc2c(c1)oc(=O)n2C)C(=O)NCCc1ccccc1 (stereo not given),–,inactive: -8.63%
COc1ccc(-c2nc(CSc3nnc(C)n4c3cc3occc34)c(C)o2)cc1OC,"inconclusive: 6.31 µM [inhibitor, partial curve]",–
CCc1ccc(-n2nc(C)c3c(C)cc(=O)n(CC(=O)Nc4ccc(C(C)=O)cc4)c32)cc1,–,inactive: 17.2%
O=C(Nc1ccc(N2C(=O)C3C4C=CC(C4)C3C2=O)cc1)Nc1cccnc1 (stereo not given),–,inactive: -2.68%
COc1cc(OC)c(NC(=O)N2CC3CCCN3c3ccccc32)cc1Cl (stereo not given),"inconclusive: 11.2 µM [inhibitor, partial curve]",–
CCCCN(C(=O)c1ccc(S(=O)(=O)N(C)C)cc1)c1nc2ccccc2s1,–,inactive: -0.704%
Cc1cc(/C=N/NC(=O)c2cccc(F)c2)c(C)n1-c1ccccc1,"inconclusive: 28.2 µM [inhibitor, single point]",–
CC(C)c1ccc(NC(=O)C(C)N(c2ccccc2)S(C)(=O)=O)cc1 (stereo not given),–,inactive: -7.58%
Cc1ccc(C(c2cccc(Br)c2)c2c(C)[nH]c3ccccc23)s1 (stereo not given),"inconclusive: 20 µM [inhibitor, partial curve]",–
C=CCN1C=CC(=CC=C(C#N)C#N)C=C1,"inconclusive: 15.8 µM [inhibitor, partial curve]",–
CC(=O)c1ccc2c(c1)CC(C)C(=O)N2C (stereo not given),"inconclusive: 10 µM [activator, partial curve, poor fit]",–
COc1ccccc1NC(=O)C1=C(C)Nc2nc(SCc3ccccc3Cl)nn2C1c1ccccn1 (stereo not given),–,inactive: -6.56%
